# Measured values taken from article PMC4336329 (PLoS ONE, 2015).
# The campaign covered roughly 310,000 compounds. About 2,200 (0.71%) showed an effect of 50% or more. Effects have a minus sign here. The list shows a part of the results.
# Biological target: human ether-à-go-go-related gene (hERG) potassium channel (human, UniProt Q12809)
# Assay: primary screen, population patch clamp on CHO cells stably expressing hERG
# human ether-à-go-go-related gene (hERG) potassium channel, sequence (Q12809 whole entry, looked up): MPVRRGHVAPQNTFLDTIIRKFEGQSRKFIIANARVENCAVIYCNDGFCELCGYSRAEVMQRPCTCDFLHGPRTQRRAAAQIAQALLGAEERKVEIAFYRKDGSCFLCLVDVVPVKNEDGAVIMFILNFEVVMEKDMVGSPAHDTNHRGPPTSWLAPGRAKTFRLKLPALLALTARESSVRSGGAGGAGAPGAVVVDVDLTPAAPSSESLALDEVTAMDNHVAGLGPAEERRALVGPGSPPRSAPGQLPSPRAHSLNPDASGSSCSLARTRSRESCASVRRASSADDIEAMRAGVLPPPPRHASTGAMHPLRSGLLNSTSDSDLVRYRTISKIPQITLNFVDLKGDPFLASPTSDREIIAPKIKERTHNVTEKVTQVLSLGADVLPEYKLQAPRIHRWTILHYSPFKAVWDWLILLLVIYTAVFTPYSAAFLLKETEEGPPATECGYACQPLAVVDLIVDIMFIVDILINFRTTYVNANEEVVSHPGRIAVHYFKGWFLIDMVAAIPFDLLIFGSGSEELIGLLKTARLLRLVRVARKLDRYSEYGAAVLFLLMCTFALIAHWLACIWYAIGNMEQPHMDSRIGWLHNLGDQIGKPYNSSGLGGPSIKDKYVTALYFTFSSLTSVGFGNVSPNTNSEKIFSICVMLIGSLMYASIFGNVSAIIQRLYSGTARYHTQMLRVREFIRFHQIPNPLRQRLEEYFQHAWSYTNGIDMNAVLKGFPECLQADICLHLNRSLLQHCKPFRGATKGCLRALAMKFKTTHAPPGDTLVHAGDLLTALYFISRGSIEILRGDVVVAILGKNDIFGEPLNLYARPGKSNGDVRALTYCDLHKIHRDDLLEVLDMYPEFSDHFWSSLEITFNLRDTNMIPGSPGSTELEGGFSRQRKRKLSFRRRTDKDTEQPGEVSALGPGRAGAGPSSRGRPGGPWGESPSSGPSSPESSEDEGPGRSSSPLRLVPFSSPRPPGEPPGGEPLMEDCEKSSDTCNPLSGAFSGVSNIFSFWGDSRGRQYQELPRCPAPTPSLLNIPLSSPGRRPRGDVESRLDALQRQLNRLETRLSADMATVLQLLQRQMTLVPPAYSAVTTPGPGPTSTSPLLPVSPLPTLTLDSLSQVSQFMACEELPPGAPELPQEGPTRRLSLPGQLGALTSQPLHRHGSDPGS
row,Compound,"hERG current change (%, negative = inhibition) at 1uM [%]"
1,COc1cc(C2C(C#N)=C(N)Oc3cc(C)oc(=O)c32)cc(OC)c1OC (centres unmarked),20.5
2,CCO[C@H]1OC(C(=O)N2CCCCCCC2)=C[C@@H](c2ccccc2)[C@@H]1CCCO,6.42
3,CN(c1ccc(C(=O)Nc2cccc([N+](=O)[O-])c2)cc1)S(C)(=O)=O,2.74
4,COc1ccc(C(=O)Nc2nc(C)cc(C)n2)cc1,-2.44
5,CCNc1nc(Oc2ccc(C(=O)OCC)cc2)nc(SC)n1,5.99
6,CCN(C(=O)COC(=O)CC1CCCCC1)c1c(N)n(Cc2ccccc2)c(=O)[nH]c1=O,8.77
7,c1ccc(CNc2ncnc3scc(-c4cccs4)c23)nc1,1.24
8,CCOc1ccc2nc(N3CCC(C(=O)N4CCN(C5CCCCC5)CC4)CC3)sc2c1,-8.64
9,CCOC(=O)C1=C(C)N(CCCC(=O)O)C(=O)NC1c1ccccc1OC(=O)c1cccs1 (centres unmarked),14.6
10,Cc1ccc(C(C)NC(=O)c2cccs2)cc1C (centres unmarked),7.25
11,Clc1ccc(CN(Cc2ccccc2)C(c2cccs2)c2nnnn2C2CCCC2)cc1 (centres unmarked),3.78
12,COc1cccc(CNC(=O)c2cccc(Br)c2)c1,9.15
13,CCOc1ccc(/C=C/c2nc(C#N)c(NCCCN(C)C)o2)cc1,-2.12
14,COc1ccccc1/C=C1\SC(=S)N(CCC(=O)Nc2ccc(C(=O)O)c(O)c2)C1=O,2.92
15,COc1ccc2cnn(-c3ccc(OC(F)(F)Cl)cc3)c(=O)c2c1OC,13.5
16,COCCn1c(=N)c(S(=O)(=O)c2ccc(Br)cc2)cc2c(=O)n3ccccc3nc21,9.15
17,O=C(NC1CCCCC1)c1ccc(CS(=O)(=O)Cc2ccccc2F)o1,11.3
18,COc1ccc(/C=N/NC(=O)c2cccc3ccccc23)c(OC)c1OC,8.62
19,COC(=O)C1=C(c2ccccc2OCc2ccccc2)C[C@@H]2CC[C@H]1N2C(=O)NCc1ccc(Cl)cc1,19.3
20,Cc1ccc(C)c(S(=O)(=O)N2CCCOC2CNC(=O)C(=O)NCCCN2CCOCC2)c1 (centres unmarked),7.91
21,Cc1ccccc1C(=O)NC(=S)Nc1ccccc1C(F)(F)F,10.8
22,COc1cccc(/C=C2\N=C(c3c(-c4ccccc4)noc3C)OC2=O)c1,13.2
23,S=C(NCc1ccco1)Nc1cccc(Cl)c1Cl,-1.87

row,Compound,"hERG current change (%, negative = inhibition) at 1uM [%]"
1,CN1CCCC(C(=O)c2ccc(Cl)cc2)C1 (centres unmarked),-2.93
2,COc1cc(C(=O)O/N=C(\N)Cc2ccc([N+](=O)[O-])cc2)cc(OC)c1OC,1.03
3,COc1cccc(-n2ccnc2SCC(=O)Nc2ccccc2F)c1,2.05
4,Cn1cc(S(=O)(=O)NCC2CCCO2)c(=O)n(C)c1=O (centres unmarked),-5.14
5,O=C(O)c1cc(O)c2c(c1)C(=O)c1cc(O)cc(O)c1C2=O,15.4
6,COc1ccccc1/C=N/NC(=O)CC(=O)NCc1cccnc1,12.1
7,COc1ccc(CN(C)Cc2nc3cc(OC)c(OC)cc3c(=O)[nH]2)c(OC)c1,4.79
8,Cc1ccc(NC(=O)C2CCCN2C(=O)OCc2ccccc2)c(C)c1 (centres unmarked),-0.547
9,S=C(Nc1ccccc1)N1CCN(C2CCCCC2)CC1,5.84
10,O=C(O)c1cccc(S(=O)(=O)Nc2ccc3c(c2)CCC3)c1,17.2
11,COc1ccc2nc(C)cc(C(=O)O)c2c1,8.4
12,COc1ccc(-c2noc(CN(C)C(=O)CCN3C(=O)[C@H]4CC=CC[C@H]4C3=O)n2)cc1,12.6
13,COc1ccc(CCNC(=O)NC2CCCCC2)cc1,-11.8
14,O=c1c2ccccc2c2ccccc2c(=O)n1CC1CCCO1 (centres unmarked),6.13
15,COc1cccc2cc(C(C)N(CCCN3CCOCC3)C(=S)Nc3ccccc3C)oc12 (centres unmarked),6.27
16,Cc1ccc2c(c1)c(CC(=O)Nc1ccc(F)cc1)c(C(=O)O)n2C,6.32
17,CCN(CC)CCCNC(=O)c1ccc2c3n(nc2c1)-c1ccc(Cl)cc1CO3,-4.38
18,COC(=O)C1=C(C)Nc2sc(C(N)=O)c(N)c2C1c1ccncc1 (centres unmarked),13
19,Cc1c2ccccc2c(C)c2c1ccc1ccccc12,-3.55
20,CCn1nc(C)c(Br)c1Nc1ccc(Br)cc1,23.2
21,CC(c1ccccc1F)n1cc(C(=O)NCCCc2nc3ccccc3[nH]2)nn1 (centres unmarked),26.3
22,CC(NCCS(=O)(=O)c1ccc(Cl)cc1)c1cccc(Cl)c1 (centres unmarked),10.9
23,CSc1nc2c(cnn2-c2ccccc2)c(=O)n1N,-10.2

row,Compound,"hERG current change (%, negative = inhibition) at 1uM [%]"
1,CCOc1ccc(NC(=O)COc2ccc(-n3cnnn3)cc2)cc1,4.6
2,COc1ccc(OCC(O)CNC(=O)c2cccs2)cc1 (centres unmarked),14.6
3,CC(=O)C1=C(C)Nc2ncnn2C1c1ccc(Br)cc1 (centres unmarked),10
4,CCCCCC(=O)N1CC2(CC(c3cccc(NC(=O)[C@@H]4CCC(=O)N4)c3)=NO2)C[C@@H]1C(N)=O (some centres unmarked),11.9
5,O=C1C2CCCN2C(c2ccc(F)cc2)N1c1nccs1 (centres unmarked),7.68
6,O=C(NCc1cccc(Cl)c1)c1cccnc1,9.87
7,Cc1cc(=O)oc2cc(NC(=O)C(C)Oc3cccc(Cl)c3)ccc12 (centres unmarked),15.4
8,CCCOc1ccc(CSc2nc3ccccc3[nH]2)cc1,-0.551
9,c1ccc(Nc2nc(N3CCCCC3)nc(N3CCCCC3)n2)cc1,2.56
10,CCN(CC(=O)Nc1c(F)cccc1F)C(=O)C1=COCCO1,0.851
11,N#CCCN1CCN(S(=O)(=O)c2ccc(S(=O)(=O)NC3CCCCC3)cc2)CC1,11.3
12,CCOC(=O)Cn1cc(C(=O)c2ccccc2F)c2ccccc21,10.4
13,Cc1ccc2c(cnn2C(=O)CCCC(=O)NC(C)c2ccccc2)c1 (centres unmarked),7.58
14,Cn1cc(Cl)nc1C(O)c1ccccc1 (centres unmarked),8.19
15,C(=C\c1ccccc1)/C=N/Nc1nc2ccccc2s1,-5.49
16,O=C1Nc2ccccc2N(O)N1c1ccc(S(=O)(=O)N2CCOCC2)cc1,3.34
17,Cc1cc(NS(=O)(=O)c2ccc(NC(=O)C(C(C)C)N3C(=O)c4ccccc4C3=O)cc2)nc(C)n1 (centres unmarked),9.77
18,CCOC(=O)C1CCN(c2c(Nc3ccc4c(c3)OCCO4)c(=O)c2=O)CC1,9.58
19,Cc1cc(/C=C2\SC(=Nc3ccccc3)NC2=O)c(C)n1-c1ccc(S(N)(=O)=O)cc1,11.8
20,CCCOP(=O)(OCCC)c1c([N+](=O)[O-])cc(C(F)(F)F)cc1[N+](=O)[O-],4.47
21,CC(CCc1ccccc1)NC(=O)C1CCN(S(=O)(=O)N2CCOCC2)CC1 (centres unmarked),1.82
22,CC(OC(=O)CCCSc1nc2ccccc2s1)C(=O)NC(N)=O (centres unmarked),9.9
23,CN(C)NC(=S)Nc1ccc(Cl)cc1,1.6

row,Compound,"hERG current change (%, negative = inhibition) at 1uM [%]"
1,CC1(c2ccc(OCC(N)=O)cc2)NC(=O)NC1=O (centres unmarked),12.1
2,Cn1c(=O)c2c(ncn2CCC(=O)N/N=C/c2ccncc2)n(C)c1=O,10.2
3,COc1ccc(OC)c(N(CC(=O)NCc2ccccc2)S(=O)(=O)c2ccc(OC)c(OC)c2)c1,20.6
4,CCOP(=O)(OCC)C(NC(=O)c1cccs1)C(F)(F)F (centres unmarked),13
5,CSC1=C(C#N)C(c2ccc(Cl)cc2)C2=C(CC(C)(C)CC2=O)N1 (centres unmarked),-6.41
6,COc1cccc(C(=O)/C=C/c2ccc(SC)cc2)c1,1.35
7,CCOc1ccc(NC(=O)CN(C)C(=O)c2cc(C)oc2C)cc1OCC,6.57
8,CCOC(=O)c1sc(NC(=O)CN2CCN(c3ccc(OC)cc3)CC2)nc1C,2.51
9,Cc1ccc(S(=O)(=O)N(CC(=O)NCc2ccncc2)C2CCCCC2)cc1,-25.2
10,Cc1cccc(NC(=O)CS(=O)(=O)c2cn(C)c3ccccc23)c1C,1.32
11,CCc1ccccc1NC(=O)C1C2C=CC(O2)C1C(=O)O (centres unmarked),14.9
12,Cc1ccc(SCC(=O)Nc2ccc3c(c2)C(=O)N(C)C3=O)cc1,11.9
13,Nc1c(C(=O)Nc2cccc(Cl)c2Cl)sc2nc(-c3cccnc3)ccc12,2.9
14,COc1cccc(NC(=O)Nc2nnc(CC(=O)Nc3ccccc3)s2)c1,6.56
15,Cc1cc(C)cc(NC(=O)Nc2ccccc2N2CCCCC2)c1,13.8
16,C/C(=N\NC(=O)c1nnn(-c2nonc2N)c1CN1CCC(C)CC1)c1cccc(Br)c1,18
17,CCC(C)(C)NC(=O)C(c1ccccc1F)N(C(=O)c1ccn[nH]1)c1ccccc1 (centres unmarked),3.87
18,CCC(C)NC(=O)c1ccccc1-c1ccccc1C(=O)NC(C)CC (centres unmarked),4.92
19,COc1cccc(C(=O)NCCSc2ccc(C)cc2)c1,0.173
20,CCOCCCNC(=O)c1c[nH]c2ccc(C)cc2c1=O,14
